Results reported in patent US8288559B2, “Luminogenic compounds and methods to detect cytochrome P450 3A enzymes” (Promega Corporation, priority 2008, dated 2012).

Substrate: CC(C)OC(OC(C)C)C1CSC(c2nc3ccc(O)cc3s2)=N1
Assay: Concentration dependence of the CYP3A4 reaction with compound 3391
Format: biochemical, human
Conditions: other: CYP3A4 reaction, substrate inhibition model fit
Experimental: The reactions were performed as described for FIGS. 3-6 except no inhibitors were present in the reactions, and the concentration of compound 3391 varied as indicated in FIG. 7. Signals are expressed as net relative luminescent units (RLU) calculated by subtracting the background RLU values of control reaction mixtures that lack CYP3A4 enzyme from the RLU values of the CYP3A4 reactions. The curve fit was performed with the program GraphPad Prism™.
FIG. 7 illustrates the concentration dependence of the CYP3A4 reaction with compound 3391. […] The data fit well to a substrate inhibition model (R^2=0.99) described by the equation Y=(Vmax·X)/(Km+X+(X·X/Ki)), where X=substrate concentration, Y=activity in relative light units (RLU), Km=[…] and Ki=the substrate inhibition constant.

B1: CYP3A4 (Homo sapiens) (protein)
chain: MALIPDLAMETWLLLAVSLVLLYLYGTHSHGLFKKLGIPGPTPLPFLGNILSYHKGFCMFDMECHKKYGKVWGFYDGQQPVLAITDPDMIKTVLVKECYSVFTNRRPFGPVGFMKSAISIAEDEEWKRLRSLLSPTFTSGKLKEMVPIIAQYGDVLVRNLRREAETGKPVTLKDVFGAYSMDVITSTSFGVNIDSLNNPQDPFVENTKKLLRFDFLDPFFLSITVFPFLIPILEVLNICVFPREVTNFLRKSVKRMKESRLEDTQKHRVDFLQLMIDSQNSKETESHKALSDLELVAQSIIFIFAGYETTSSVLSFIMYELATHPDVQQKLQEEIDAVLPNKAPPTYDTVLQMEYLDMVVNETLRLFPIAMRLERVCKKDVEINGMFIPKGVVVMIPSYALHRDPKYWTEPEKFLPERFSKKNKDNIDPYIYTPFGSGPRNCIGMRFALMNMKLALIRVLQNFSFKPCKETQIPLKLSLGGLLQPEKPVVLKVESRDGTVSGA
notes: purchased Discovery Labware (Supersomes™); host or cells: insect cell expression system
Question: Which Km does the source give for B1 here?
Answer: Its Km is 2 µM.
